# Test results reported in the supplement of paper PMC8728848.
# The list shows a part of the results.
# B1: PNGase F (Flavobacterium meningosepticum) (protein)
# chain: GIPAPADNTVNIKTFDKVKNAFGDGLSQSAEGTFTFPADVTAVKTIKMFIKNECPNKTCDEWDRYANVYVKNKTTGEWYEIGRFITPYWVGTEKLPRGLEIDVTDFKSLLSGNTELKIYTETWLAKGREYSVDFDIVYGTPDYKYSAVVPVVQYNKSSIDGVPYGKAHTLALKKNIQLPTNTEKAYLRTTISGWGHAKPYDAGSRGCAEWCFRTHTIAINNSNTFQHQLGALGCSANPINNQSPGNWTPDRAGWCPGMAVPTRIDVLNNSLIGSTFSYEYKFQNWTNNGTNGDAFYAISSFVIAKSNTPISAPVVTNLDPHHHHHH
# Key:
# Test in all cases: glycan array binding signal (z-score within array); higher = stronger binding
# Settings in all cases: glycan notation: IUPAC condensed, linker removed
# [1] = biological target: GalNAc(b1-4)GlcNAc(b1-2)Man
# Outline: (§1)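 Columns mapping to the same glycan were averaged after glycan names were converted to IUPAC-condensed notation. The data come from 3228 arrays in the Consortium for Functional Glycomics database, limited to those with an available protein sequence. Binding is reported as a within-array Z-score averaged across arrays of one protein sequence and across linkers.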
# [2] = biological target: GalNAc(b1-4)GlcNAc(b1-2)Man(a1-3)[GalNAc(b1-4)GlcNAc(b1-2)Man(a1-6)]Man(b1-4)GlcNAc(b1-4)GlcNAc
# Outline: as §1
# [3] = biological target: GalNAc(b1-4)GlcNAc(b1-3)GalNAc(b1-4)GlcNAc
# Outline: as §1
# GalNAc(b1-4)GlcNAc6S = biological target: GalNAc(b1-4)GlcNAc6S
# Outline: as §1
# GalNAc(b1-6)GalNAc = biological target: GalNAc(b1-6)GalNAc
# Outline: as §1
# GalNAc3S(b1-4)GlcNAc = biological target: GalNAc3S(b1-4)GlcNAc
# Outline: as §1
# GalNAc3S(b1-4)GlcNAc3S = biological target: GalNAc3S(b1-4)GlcNAc3S
# Outline: as §1
# [4] = biological target: GalNAc3S(b1-4)[Fuc(a1-3)]GlcNAc
# Outline: as §1
# GalNAc4S6S(b1-4)GlcNAc = biological target: GalNAc4S6S(b1-4)GlcNAc
# Outline: as §1
# GalNAc6S(b1-4)GlcNAc = biological target: GalNAc6S(b1-4)GlcNAc
# Outline: as §1
# Glc(a1-4)Glc = biological target: Glc(a1-4)Glc
# Outline: as §1
# [5] = biological target: Glc(a1-4)Glc(a1-4)Glc(a1-4)Glc
# Outline: as §1
# Glc(a1-6)Glc(a1-6)Glc = biological target: Glc(a1-6)Glc(a1-6)Glc
# Outline: as §1
# [6] = biological target: Glc(a1-6)Glc(a1-6)Glc(a1-6)Glc
# Outline: as §1
# Glc(b1-4)Glc = biological target: Glc(b1-4)Glc
# Outline: as §1
# Glc(b1-6)Glc = biological target: Glc(b1-6)Glc
# Outline: as §1
# GlcA(b1-3)Gal = biological target: GlcA(b1-3)Gal
# Outline: as §1
# GlcA(b1-3)GlcNAc = biological target: GlcA(b1-3)GlcNAc
# Outline: as §1
# GlcA(b1-6)Gal = biological target: GlcA(b1-6)Gal
# Outline: as §1
# [7] = biological target: GlcA3S(b1-3)Gal(b1-4)GlcNAc(b1-2)Man
# Outline: as §1
# [8] = biological target: GlcA3S(b1-3)Gal(b1-4)GlcNAc(b1-3)Gal(b1-4)Glc
# Outline: as §1
# [9] = biological target: GlcNAc(a1-3)Gal(b1-4)GlcNAc
# Outline: as §1
# [10] = biological target: GlcNAc(a1-4)Gal(b1-3)GlcNAc
# Outline: as §1
# [11] = biological target: GlcNAc(a1-4)Gal(b1-4)GalNAc
# Outline: as §1
# [12] = biological target: GlcNAc(a1-4)Gal(b1-4)GlcNAc
# Outline: as §1
# [13] = biological target: GlcNAc(a1-4)Gal(b1-4)GlcNAc(b1-3)Gal(b1-4)Glc
# Outline: as §1
# [14] = biological target: GlcNAc(a1-4)Gal(b1-4)GlcNAc(b1-3)Gal(b1-4)GlcNAc
# Outline: as §1
# [15] = biological target: GlcNAc(a1-4)Gal(b1-4)GlcNAc(b1-3)Gal(b1-4)GlcNAc(b1-3)Gal(b1-4)GlcNAc
# Outline: as §1
# [16] = biological target: GlcNAc(a1-4)Gal(b1-4)GlcNAc(b1-3)Gal(b1-4)[Fuc(a1-3)]GlcNAc(b1-3)Gal(b1-4)[Fuc(a1-3)]GlcNAc
# Outline: as §1
# [17] = biological target: GlcNAc(a1-6)Gal(b1-4)GlcNAc
# Outline: as §1
# [18] = biological target: GlcNAc(b1-2)Gal(b1-3)GalNAc
# Outline: as §1
# [19] = biological target: GlcNAc(b1-2)Man(a1-3)[GlcNAc(b1-2)Man(a1-6)]Man(b1-4)GlcNAc(b1-4)GlcNAc
# Outline: as §1
# [20] = biological target: GlcNAc(b1-2)Man(a1-3)[GlcNAc(b1-2)Man(a1-6)]Man(b1-4)GlcNAc(b1-4)[Fuc(a1-6)]GlcNAc
# Outline: as §1
# [21] = biological target: GlcNAc(b1-2)Man(a1-3)[GlcNAc(b1-4)][GlcNAc(b1-2)Man(a1-6)]Man(b1-4)GlcNAc(b1-4)GlcNAc
# Outline: as §1
# [22] = biological target: GlcNAc(b1-2)Man(a1-3)[GlcNAc(b1-4)][GlcNAc(b1-2)Man(a1-6)]Man(b1-4)GlcNAc(b1-4)[Fuc(a1-6)]GlcNAc
# Outline: as §1
# [23] = biological target: GlcNAc(b1-2)[GlcNAc(b1-4)]Man(a1-3)[GlcNAc(b1-2)Man(a1-6)]Man(b1-4)GlcNAc(b1-4)GlcNAc
# Outline: as §1
# [24] = biological target: GlcNAc(b1-2)[GlcNAc(b1-4)]Man(a1-3)[GlcNAc(b1-4)][GlcNAc(b1-2)Man(a1-6)]Man(b1-4)GlcNAc(b1-4)GlcNAc
# Outline: as §1
# [25] = biological target: GlcNAc(b1-2)[GlcNAc(b1-4)]Man(a1-3)[GlcNAc(b1-4)][GlcNAc(b1-2)[GlcNAc(b1-6)]Man(a1-6)]Man(b1-4)GlcNAc(b1-4)GlcNAc
# Outline: as §1
# [26] = biological target: GlcNAc(b1-2)[GlcNAc(b1-4)]Man(a1-3)[GlcNAc(b1-4)][GlcNAc(b1-2)[GlcNAc(b1-6)]Man(a1-6)]Man(b1-4)GlcNAc(b1-4)[Fuc(a1-6)]GlcNAc
# Outline: as §1
# [27] = biological target: GlcNAc(b1-2)[GlcNAc(b1-6)]Man(a1-6)[GlcNAc(b1-2)Man(a1-3)]Man(b1-4)GlcNAc(b1-4)GlcNAc
# Outline: as §1
# [28] = biological target: GlcNAc(b1-2)[GlcNAc(b1-6)]Man(a1-6)[GlcNAc(b1-2)Man(a1-3)]Man(b1-4)GlcNAc(b1-4)[Fuc(a1-6)]GlcNAc
# Outline: as §1
# [29] = biological target: GlcNAc(b1-2)[GlcNAc(b1-6)]Man(a1-6)[GlcNAc(b1-4)][GlcNAc(b1-2)Man(a1-3)]Man(b1-4)GlcNAc(b1-4)GlcNAc
# Outline: as §1
# GlcNAc(b1-3)Fuc = biological target: GlcNAc(b1-3)Fuc
# Outline: as §1
# GlcNAc(b1-3)Gal = biological target: GlcNAc(b1-3)Gal
# Outline: as §1
# [30] = biological target: GlcNAc(b1-3)Gal(b1-3)GalNAc
# Outline: as §1
binder,measurement,setting,value
B1,glycan array binding signal (z-score),[1],-0.368
same,glycan array binding signal (z-score),[2],-0.128
same,glycan array binding signal (z-score),[3],0.165
same,glycan array binding signal (z-score),GalNAc(b1-4)GlcNAc6S,0.013
same,glycan array binding signal (z-score),GalNAc(b1-6)GalNAc,-0.208
same,glycan array binding signal (z-score),GalNAc3S(b1-4)GlcNAc,-0.265
same,glycan array binding signal (z-score),GalNAc3S(b1-4)GlcNAc3S,-0.261
same,glycan array binding signal (z-score),[4],-0.257
same,glycan array binding signal (z-score),GalNAc4S6S(b1-4)GlcNAc,-0.387
same,glycan array binding signal (z-score),GalNAc6S(b1-4)GlcNAc,-0.335
same,glycan array binding signal (z-score),Glc(a1-4)Glc,0.159
same,glycan array binding signal (z-score),[5],0.48
same,glycan array binding signal (z-score),Glc(a1-6)Glc(a1-6)Glc,0.226
same,glycan array binding signal (z-score),[6],0.15
same,glycan array binding signal (z-score),Glc(b1-4)Glc,0.492
same,glycan array binding signal (z-score),Glc(b1-6)Glc,0.062
same,glycan array binding signal (z-score),GlcA(b1-3)Gal,0.135
same,glycan array binding signal (z-score),GlcA(b1-3)GlcNAc,-0.118
same,glycan array binding signal (z-score),GlcA(b1-6)Gal,0.121
same,glycan array binding signal (z-score),[7],-0.124
same,glycan array binding signal (z-score),[8],0.014
same,glycan array binding signal (z-score),[9],-0.344
same,glycan array binding signal (z-score),[10],-0.153
same,glycan array binding signal (z-score),[11],1.26
same,glycan array binding signal (z-score),[12],0.046
same,glycan array binding signal (z-score),[13],-0.293
same,glycan array binding signal (z-score),[14],-0.179
same,glycan array binding signal (z-score),[15],-0.412
same,glycan array binding signal (z-score),[16],0.383
same,glycan array binding signal (z-score),[17],-0.149
same,glycan array binding signal (z-score),[18],-0.114
same,glycan array binding signal (z-score),[19],-0.251
same,glycan array binding signal (z-score),[20],-0.125
same,glycan array binding signal (z-score),[21],-0.221
same,glycan array binding signal (z-score),[22],-0.281
same,glycan array binding signal (z-score),[23],-0.288
same,glycan array binding signal (z-score),[24],0.216
same,glycan array binding signal (z-score),[25],-0.237
same,glycan array binding signal (z-score),[26],-0.395
same,glycan array binding signal (z-score),[27],-0.253
same,glycan array binding signal (z-score),[28],-0.288
same,glycan array binding signal (z-score),[29],-0.333
same,glycan array binding signal (z-score),GlcNAc(b1-3)Fuc,0.029
same,glycan array binding signal (z-score),GlcNAc(b1-3)Gal,-0.095
same,glycan array binding signal (z-score),[30],-0.275
